AUC and IC50 data for six cell lines are collected here from the supplement of paper PMC4967469.

By IC50 is meant the dose at which the fit gives 50% viability; a limit (>, <) means that the fit lies beyond the doses tested. AUC is the area under the same curve over the 256-fold range up to the top dose, as a fraction; it is 1 without any effect and falls as sensitivity rises. For some assays here: The top dose, if marked as inferred, was calculated from the reported fits. For some assays here: An entry number marks a drug with two screens in the source, which often give different values.

What all share (test): Viability of human cancer cell lines after 72 h of drug (GDSC screen)
Compound in one assay: CC/C(=C(\c1ccccc1)c1ccc(OCCN(C)C)cc1)c1ccccc1 [Tamoxifen]
Particulars: top dose 5 µM. Here is the method:
(§1)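 Human cancer cell lines in 384-well plates, medium with 10% serum, drug for 72 h over a 256-fold dose range (nine 2-fold or five 4-fold steps up to the top dose). Adherent lines were fixed and stained with the nucleic acid dye Syto60, suspension lines read with resazurin; signal relative to control wells, capped at 0 and 100%. One two-parameter sigmoid per drug and line, fitted in a mixed model over all curves with the slope shared within a line.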

Compound in a further assay: CCCC(=O)OCc1ccc(OC(=O)/C=C(C)/C=C/C=C(C)/C=C/C2=C(C)CCCC2(C)C)cc1 [VNLG/124]
To be noted: top dose 5.12 µM; top dose inferred. Here is the method: as §1

Compound in another assay: CN(NC(=O)CC(=O)NN(C)C(=S)c1ccccc1)C(=S)c1ccccc1 [Elesclomol]
Particulars: top dose 0.2 µM; top dose inferred. Here is the method:
as §1

Compound in a further assay: Cc1c(N)nc([C@H](CC(N)=O)NC[C@H](N)C(N)=O)nc1C(=O)N[C@H](C(=O)N[C@H](C)[C@@H](O)[C@H](C)C(=O)N[C@H](C(=O)NCCc1nc(-c2nc(C(=O)NCCC[S+](C)C)cs2)cs1)[C@@H](C)O)[C@@H](OC1OC(CO)C(O)C(O)C1OC1OC(CO)C(O)C(OC(N)=O)C1O)c1cnc[nH]1 [Bleomycin]
Here is the method: as §1

Compound in the next assay: Cc1ccc(NC(=O)c2ccc(CN3CCN(C)CC3)cc2)cc1Nc1nc(-c2cccnc2)cs1 [Masitinib]
To be noted: top dose 20 µM. Here is the method: as §1

Compound in another assay: O=C(/C=C/c1ccc(CN(CCO)CCc2c[nH]c3ccccc23)cc1)NO [LAQ824]
To be noted: top dose 1.024 µM; top dose inferred. Here is the method: as §1

Compound in a further assay: O=C(Nc1ccc(OC(F)(F)F)cc1)c1sccc1NCc1ccnc2ccccc12 [OSI-930]
To be noted: top dose 10.24 µM. Here is the method:
as §1

Compound in a further assay: O=C(Nc1cccc(Nc2ncc(Br)c(NCCc3cnc[nH]3)n2)c1)N1CCCC1 [BX-912]
Particulars: top dose 10.24 µM; top dose inferred. Here is the method:
as §1

Compound in the next assay: O=S(=O)(O)c1ccc2cc(N=Nc3cc(S(=O)(=O)O)c4cccnc4c3O)ccc2c1 [NSC-87877]
To be noted: top dose 16 µM; top dose inferred. Here is the method:
as §1

[1] abbreviates: top dose 50 µM, screen: GDSC drug entry 1378, top dose inferred.
Where [2] appears, read: top dose 64 µM, screen: GDSC drug entry 190.

Usually IC50 stands for the point on the concentration scale where inhibition reaches its midpoint. For the cell line “BV-173 (chronic myeloid leukaemia, suspension)”, the AUC in the assay with Tamoxifen was determined as 0.961; with VNLG/124, 0.989; with Elesclomol, 0.578; in the assay with Bleomycin (setting [1]), 0.324; with Bleomycin (setting [2]), 0.897; with Masitinib it was 0.284. Further, the AUC with LAQ824 came out at 0.311; in the assay with OSI-930, 0.773; with BX-912, 0.335; with NSC-87877, 0.97. The IC50 with Tamoxifen is over 5 µM; in the assay with VNLG/124 it was over 5.12 µM; with Elesclomol, 0.0199 µM; with Bleomycin (setting [1]), 1.08 µM; with Bleomycin (setting [2]) it was 63.2 µM; in the assay with Masitinib, 0.335 µM. The IC50 with LAQ824 was 0.0203 µM; with OSI-930, 3.52 µM; with BX-912, 0.237 µM; in the assay with NSC-87877 it was over 16 µM.
Take “NCI-H1836 (small cell lung carcinoma, suspension)”: the AUC is 0.975 with Tamoxifen; 0.973 with VNLG/124; 0.988 in the assay with Elesclomol; 0.872 in the assay with Bleomycin (setting [1]); 0.976 with Bleomycin (setting [2]); 0.961 with Masitinib. The AUC in the assay with LAQ824 came out at 0.443; with OSI-930, 0.964; in the assay with BX-912, 0.889; in the assay with NSC-87877, 0.979. Further, the IC50 was over 5 µM in the assay with Tamoxifen; over 5.12 µM in the assay with VNLG/124; over 0.2 µM with Elesclomol; over 50 µM in the assay with Bleomycin (setting [1]); over 64 µM in the assay with Bleomycin (setting [2]); over 20 µM with Masitinib. The IC50 is 0.044 µM with LAQ824, over 10.2 µM in the assay with OSI-930, over 10.2 µM in the assay with BX-912 and over 16 µM in the assay with NSC-87877.
For the cell line BFTC-905 (bladder, adherent), the AUC with Tamoxifen came out at 0.99; in the assay with VNLG/124, 0.983; in the assay with Elesclomol it was 0.602; with Bleomycin (setting [2]) it was 0.43; with Masitinib, 0.946; with LAQ824, 0.396. Also, the AUC with OSI-930 turned out to be 0.925; with BX-912 it was 0.826; with NSC-87877 it was 0.987. The IC50 is over 5 µM in the assay with Tamoxifen; over 5.12 µM in the assay with VNLG/124; 0.0228 µM with Elesclomol; 2.66 µM in the assay with Bleomycin (setting [2]); over 20 µM with Masitinib; 0.0347 µM with LAQ824. In addition, the IC50 with OSI-930 is over 10.2 µM; with BX-912 it was 5.06 µM; with NSC-87877 it was over 16 µM.
Regarding P32-ISH (Burkitt lymphoma, suspension), the AUC worked out at 0.994 in the assay with Tamoxifen; 0.995 with VNLG/124; 0.619 with Elesclomol; 0.888 in the assay with Bleomycin (setting [1]); 0.281 with Bleomycin (setting [2]); 0.791 with Masitinib. The AUC with LAQ824 amounted to 0.245; in the assay with OSI-930, 0.938; in the assay with BX-912, 0.544; with NSC-87877, 0.985. For the same cell line, the IC50 with Tamoxifen is over 5 µM; with VNLG/124 it was over 5.12 µM; with Elesclomol, 0.0244 µM; with Bleomycin (setting [1]), 32.2 µM; with Bleomycin (setting [2]), 1.16 µM; in the assay with Masitinib it was 6.66 µM. The IC50 was 0.0149 µM with LAQ824, over 10.2 µM with OSI-930, 0.82 µM with BX-912 and over 16 µM in the assay with NSC-87877.
With “LAMA-84 (chronic myeloid leukaemia, suspension)”, the AUC with Tamoxifen was 0.962; in the assay with VNLG/124, 0.9; with Elesclomol, 0.741; with Bleomycin (setting [1]) it was 0.95; with Bleomycin (setting [2]), 0.499; in the assay with Masitinib it was 0.196. Further, the AUC amounted to 0.491 with LAQ824, 0.852 with OSI-930, 0.84 with BX-912 and 0.978 in the assay with NSC-87877. In addition, the IC50 was over 5 µM with Tamoxifen; over 5.12 µM in the assay with VNLG/124; 0.0618 µM with Elesclomol; over 50 µM in the assay with Bleomycin (setting [1]); 3.96 µM with Bleomycin (setting [2]); 0.153 µM with Masitinib. The 50% inhibitory concentration (IC50) is 0.0606 µM with LAQ824, 8.11 µM with OSI-930, 7.2 µM with BX-912 and over 16 µM with NSC-87877.
Take HN (head and neck, adherent): the AUC with Tamoxifen was found to be 0.984; with VNLG/124, 0.985; with Elesclomol it was 0.54; with Bleomycin (setting [1]), 0.15; with Masitinib, 0.987; in the assay with LAQ824, 0.772. Moreover, the AUC is 0.988 with OSI-930, 0.975 with BX-912 and 0.989 with NSC-87877. In addition, the IC50 with Tamoxifen is over 5 µM; with VNLG/124 it was over 5.12 µM; in the assay with Elesclomol, 0.016 µM; with Bleomycin (setting [1]), 0.283 µM; in the assay with Masitinib it was over 20 µM; with LAQ824 it was 0.373 µM. Moreover, the values for the IC50 in the assay with OSI-930, with BX-912 and with NSC-87877 were over 10.2 µM, over 10.2 µM and over 16 µM, respectively.
